According to publication PMC7771853, “Differential effects of novel kappa opioid receptor antagonists on dopamine neurons using acute brain slice electrophysiology” (PLoS ONE, 2020):

What was measured:
[1] = target: T1, kappa opioid receptor (KOR) in VTA dopamine neurons (Rattus norvegicus, UniProt P34975); conditions: probed 10 and/or 20 min after washout commenced; norBNI 100 nM
[2] = target: T1, kappa opioid receptor (KOR) in VTA dopamine neurons; assay: Blockade of U-69,593 induced outward current, whole cell electrophysiology in acute rat midbrain slices; format: cell-based; conditions: for lower asymptote of the fit, % of baseline U-69,593 response: concentration response fit, maximum blockade
mu opioid receptor (MOR) = conditions: 10 nM antagonist, DAMGO 10 μM pressure ejected
[3] = system: delta opioid receptor (DOR); conditions: 10 nM antagonist, DPDPE 10 μM pressure ejected

T1 sequence (P34975 whole entry): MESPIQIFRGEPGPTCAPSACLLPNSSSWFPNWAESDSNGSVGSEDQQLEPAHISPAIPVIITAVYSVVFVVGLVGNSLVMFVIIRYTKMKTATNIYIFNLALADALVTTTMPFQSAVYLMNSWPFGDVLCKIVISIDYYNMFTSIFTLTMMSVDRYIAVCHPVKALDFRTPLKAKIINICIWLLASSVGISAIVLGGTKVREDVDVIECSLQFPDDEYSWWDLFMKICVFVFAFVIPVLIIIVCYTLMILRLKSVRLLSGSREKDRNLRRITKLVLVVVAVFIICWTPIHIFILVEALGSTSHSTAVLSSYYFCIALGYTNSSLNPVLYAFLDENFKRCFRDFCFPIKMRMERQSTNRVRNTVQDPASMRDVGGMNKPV

Row | Compound | reversal of U-69,593 blockade on washout [1] | lower asymptote of the fit, % of baseline U-69,593 response [2] | effect on responses to DAMGO (mu opioid receptor (MOR)) | effect on responses to DPDPE [3] | neurons responding to U-69,593 with an inward current in presence of antagonist ([2]; 1 μM antagonist)
1 | CC(C)CNCc1ccc(-c2ccccc2S(=O)(=O)N2CCCC2)cc1 [PF-04455242, 2-methyl-N-((2'-(pyrrolidin-1-ylsulfonyl)biphenyl-4-yl)methyl)propan-1-amine] | persisted through 10 min, but did permit recovery of the U-69,593 effect at 20 min | 45 % of baseline U-69,593 respons |  |  | 
2 | Cc1cc(C)cc([C@@H]2CCCN2Cc2ccc(Oc3ccc(C(N)=O)cc3F)cc2)c1 [JNJ-67953964, (S)-3-fluoro-4-(4-((2-(3,5-dimethylphenyl)pyrrolidin-1-yl)methyl)phenoxy)benzamide] | some apparent washout | -27 % of baseline U-69,593 response | consistently decreased | to a smaller extent inhibited | 1 of 2
3 | Oc1ccc2c3c1O[C@H]1c4[nH]c5c(c4C[C@@]4(O)[C@@H](C2)N(CC2CC2)CC[C@]314)C[C@@]1(O)[C@H]2Cc3ccc(O)c4c3[C@@]1(CCN2CC1CC1)[C@H]5O4 [norBNI, norbinaltorphimine] | no reversal at 20 min |  |  |  | 
